From the supplement of paper PMC4466236
Over roughly 33,000 sequences, “E-score (dimensionless, -0.5 to 0.5)” has its median near -0.058; the highest 2% begin near 0.35. Some of the results follow.

Test system: MvaT
Experiment: PBM 8-mer E-score (mean of HK and ME arrays) (E-score (dimensionless, -0.5 to 0.5)); higher = stronger relative binding preference; most listed sequences are background and not binding sites
Outline: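 Reported values are rank-based E-scores, taken as the mean of two universal arrays and parsed with a custom script. Each 8-mer score falls between -0.5 and 0.5. The arrays, ME and HK, were double-stranded 60-mers with a constant 25-mer primer region and a variable 35-mer region covering all 8-mers. They were probed, by an earlier protocol, with full-length P. aeruginosa MvaT carrying an N-terminal glutathione S-transferase fusion.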

Sequence	PBM 8-mer E-score
AGGGAGTG	0.00184
ACTAGCCC	-0.207
TCATCGCA	0.0334
CCAGGAAG	-0.0742
GCTAGTAC	-0.067
AACTGTAT	0.158
CCTCATAG	-0.113
ATAGCATG	-0.0166
GGATAAAA	0.265
AGACACAC	-0.00748
CACGACAC	-0.102
CCACAAGA	-0.147
CCGGCGGC	-0.241
AGGTGCGC	-0.0802
CGAACCCC	-0.164
ATGTTGTC	0.295
AAGTAACC	0.0722
GCGACAAC	0.0135
GTACTCCA	-0.0891
GAATTCTA	0.269
GAAGTTCC	0.0962
CCAACGAA	0.0022
CTGAACCC	-0.141
ATCGTATG	0.0402
CTATAAAA	0.171

Sequence	PBM 8-mer E-score
TAGACCGA	0.114
CCTCATTC	-0.218
GCCTAATA	0.133
ATGCGTCA	0.124
TCCAGCGA	0.0105
AACAACTA	0.335
CACGGGCC	-0.252
CACGACTA	-0.105
GCTAGCCA	-0.207
GTTACCGA	0.0281
CTCTATGC	-0.1
TAGAACAA	0.189
CGAGGAGC	-0.361
GCAACTAC	0.157
CACAAACG	-0.0648
CCGTGGAC	-0.204
CGCGTATA	0.169
CGGATTAA	0.275
GTCCGAAC	0.0123
AGGGGCAC	-0.309
CACTAGAA	-0.0936
CGAATTTC	0.148
CACCTCCG	-0.176
ATCTAGCG	-0.0807
CCTTTGGC	-0.248

Sequence	PBM 8-mer E-score
AGTGGACA	0.0462
CGGGATAA	0.109
AGTTCAGG	0.0672
AGAAATTG	0.161
ACGAGCAC	-0.0926
ACCTTCAA	-0.0827
CCATCTCA	-0.042
CAAGTCGC	-0.116
AATTTTAG	0.218
AGTGCGGC	-0.222
ATACGCTC	-0.054
CTACTCTC	-0.17
CCATCGCA	0.0159
GGCCTATA	-0.0174
CCTTTCGC	-0.308
CGTTGGTC	-0.0989
CGCCCGCG	-0.234
CGGGTACA	-0.0736
CACCGTAG	-0.184
ACTCCTAT	0.0892
AAGACCCA	-0.116
AGTGGGAT	-0.0288
CCTTCCCA	-0.335
CCAGAAGC	-0.22
TAATCTAA	0.292

Sequence	PBM 8-mer E-score
GATACGGC	-0.0759
CTAATACA	0.325
AAATAACA	0.336
GCACACGC	-0.0844
CCATCAAA	-0.0724
CAGATCAA	-0.0545
GCCAAGCA	-0.313
ATAGCCCC	-0.201
ACGTCAGA	-0.152
CGGTGAAG	-0.0293
AAGCCTTC	-0.205
CTGGACTC	-0.179
GTATCATA	0.134
AGGTTCAA	-0.105
ATAGTAGG	0.15
CTTCACAC	-0.0643
GTTGAAAC	0.144
TGGCACAA	-0.0416
ATAACTGA	0.246
TACCTAAA	0.155
GGGCGGAC	-0.302
CTGTGCGC	-0.0389
CCATTAAC	0.0581
AGACTCTC	-0.112
GAGTAATA	0.287

Sequence	PBM 8-mer E-score
ACATTACT	0.335
AAGAAGCC	-0.086
CGAGATTA	0.302
TCGTGGAA	0.109
CCAAGAGA	-0.199
AGATGCGA	-0.108
CTCCGGGA	-0.0338
CATCTGCG	-0.0832
CCGACAAG	-0.182
ATATGTGA	0.316
CCCTCTCC	-0.302
CCAGTGGA	-0.145
AGTTGAAA	0.207
CGTTTTGA	0.0195
ATTTTCGC	0.0826
CTGGCACA	-0.132
ATGGGATG	-0.094
ACCTAAGG	-0.106
GCCAGGCC	-0.312
AACTCAAC	0.0196
GTCATCAA	-0.0585
CAAATGAC	0.232
GCGTAGTA	-0.11
AATAGCAC	0.113
GCGGCACA	-0.119

Sequence	PBM 8-mer E-score
GACCCGGC	-0.246
AAGCGAGA	-0.198
ACCTCGGA	-0.138
AGCAAACG	-0.117
ATGAGCGA	-0.0828
ATTTAACC	0.195
GTTTAGCA	0.0407
TCTACAGA	0.0213
CACGTTGA	-0.0691
GGTTCGGA	-0.109
AGTTAGGC	0.0261
AACGTCAT	-0.0323
ACGTCCGG	-0.0895
AGCATCAA	-0.0528
ACGCTGAA	-0.00947
GGGCTTTA	-0.212
CACTTGTC	-0.0963
AGTCCCGA	-0.0661
CTCGCTGC	-0.0888
GTCCAACA	0.0273
CTTATGGC	-0.104
AAGACCGT	-0.15
CTAGCCGA	-0.168
GCGCCTCC	-0.312
TAACTCCA	0.147

Sequence	PBM 8-mer E-score
TCTAGACA	-0.0261
CCGTGCGA	-0.193
CTGAAAGA	-0.0364
ATCAACAC	-0.0437
CTTCATAC	0.0212
ACATCTAG	0.167
AGTGGAAA	0.0767
AAGCAGAC	-0.0976
GCCTTCGA	-0.124
GGCAATAC	0.0146
CGAGACCG	-0.14
AACTCCTG	0.0552
TATCTCAA	0.121
AACCGATA	0.172
GATTTGCA	0.1
ACCATGGC	-0.192
CCATCCCG	-0.318
AAAAGATA	0.186
CTTATCCA	0.125
GTCACACA	-0.0498
ACTACTAT	0.338
ATAGGCAT	-0.0831
CTGTCAAA	-0.0819
CGTGGATC	-0.132
GATGGCGC	-0.288

Sequence	PBM 8-mer E-score
TAATTCAA	0.346
GACTCGAA	-0.104
ACGTAAGA	-0.0609
GAGCTCTA	-0.12
CGCCTGGA	-0.279
AATCAACA	0.118
CTTGAGCC	-0.347
GCGAGTCC	-0.304
CTGTCGCC	-0.165
ATCGGGCC	-0.291
CCAACCCG	-0.155
GGCTTGAA	-0.104
CCACTGCA	-0.0146
CAAGATGG	-0.0132
CCTAGCTC	-0.133
TAATCGAA	0.168
GGTTTTAA	0.243
AGACCCTG	-0.261
AACATGCA	0.238
GCGAAAAA	0.176
AGACGGCC	-0.171
CAAATTGG	-0.0407
AAATGGGA	-0.0542
AGGGGTTA	-0.0662
GCCTTCAC	-0.138

Sequence	PBM 8-mer E-score
TCGATAAA	0.158
CACTTTGG	-0.151
CATCTAAG	0.02
AGACCTAC	-0.146
ACACCGTG	-0.267
AATGGCGA	0.0392
CCGGTTGC	-0.249
CACACATG	-0.158
GAGAGCGA	-0.266
CCTTTGCC	-0.177
AATTCGTA	0.267
GTGCTTTA	0.0304
CGTTGCAG	-0.128
ACATTAGA	0.175
CCTAATAG	0.0342
GGTGTGAA	-0.115
CAAGTGTC	0.0139
AACCAGAG	-0.0261
CCAATGTA	0.0446
GCACGACC	-0.211
GTAAAGTA	0.311
CCTTAAGA	0.0147
GAACAGAA	0.0885
ATTCCCTC	-0.0531
AAGCGGGT	0.0658

Sequence	PBM 8-mer E-score
ACCTCCTA	-0.261
CAGAATCG	-0.0961
ATATAGAG	0.351
GACGGCAC	-0.151
AGTTGGAT	0.182
CGACATAC	-0.141
GCAGGATA	-0.0415
AGTTACAC	0.156
ACCTTATA	0.266
CCAAACGG	-0.0709
ACCTAGAA	0.0098
TATCATGA	0.162
GACCCGAC	-0.209
ATTTATAC	0.383
AATTGGCC	-0.0386
GCCTTCCA	-0.248
GGGGAGAA	-0.0599
CGCCCCCC	-0.306
CGCAGGTA	-0.071
AGCCGGAC	-0.198
CGTTACTC	-0.0177
CCGGTTAA	0.0615
ACCTACTG	-0.0851
CTGCGAGA	-0.109
GATCACCC	-0.211

Sequence	PBM 8-mer E-score
ACTGCTGG	-0.0671
CGTGCACC	-0.217
TCCTGTAA	-0.0302
ATGTATTC	0.152
ACACCTGC	-0.192
ACAATTCA	0.202
CTCGGCCA	-0.275
CTACCCAC	-0.0554
ACGAGTAA	0.123
GCTCAGTA	-0.0967
ATACAGCG	0.00347
CTTATAAC	0.352
AAAGTTTG	0.284
ACGTATCG	-0.113
AGCGAGAA	-0.14
TCAACAGA	-0.0319
CGCAGTGC	-0.113
CAGAAGCA	-0.067
ACGGCTCA	-0.195
ATACTAAC	0.281
ACGTGCTC	-0.148
CACGTAGG	-0.198
CCCGGGCG	-0.302
ACGTACTG	-0.0685
ACCGTGCC	-0.195

Sequence	PBM 8-mer E-score
CTTATTAC	0.367
CGGAATTC	-0.0907
GCCGGCGA	-0.262
CGGGAAAA	0.0519
CCTATAAA	0.211
AGAGATAT	0.285
GAGTGCAC	-0.191
AATTTTCC	0.233
AGTGAAGA	-0.0319
AGCGGAAG	-0.121
GACAACAA	0.0775
CTGTTGTA	0.199
AAAGAACA	0.103
TAACTTCA	0.282
CAGATTAG	0.108
AACATTTA	0.334
AGCCATGA	-0.0893
GGGAGCCC	-0.305
CAATTAAC	0.234
CCCGCCGG	-0.223
ACGTAGTC	-0.289
GAGGCAGA	-0.244
CCGCGCAC	-0.102
AATCAAAA	0.186
AAATTAGT	0.281

Sequence	PBM 8-mer E-score
AAAAGCCG	0.0019
ACGCAGCC	-0.21
CCAGTGCC	-0.229
GACCGGCC	-0.208
AGCCGTAT	-0.0393
ATTTTGCA	0.167
CGCTCACG	-0.262
AAGTAGAT	0.044
ACGATGCG	-0.235
CGTCTACC	-0.0847
GCGGCTAC	-0.204
AACGTACG	0.0774
ACTGCCTG	-0.0185
ACGTGAAT	0.0978
GAACGGTA	-0.0707
AGGTGGAC	-0.19
GTTCCGCA	-0.111
GGTCCAGA	-0.209
CGTGAATC	-0.145
CCAGTACA	0.0309
ATCTTGAC	0.0211
AGGGGTTC	-0.193
AATTGGCA	-0.0711
CGCTAGTA	-0.0941
CTGGTGGC	-0.196

Sequence	PBM 8-mer E-score
GATGTCGC	-0.145
GATTGGGA	-0.246
CTCATACC	-0.0218
AGTCGCAT	-0.137
ATTATGAA	0.269
GCTCAAAC	0.0144
GCGAGCAC	-0.249
AATCTCAG	-0.101
GCTTCACA	-0.0468
ACTTCTTG	0.177
GTGTTCGA	0.0764
CGTTTTCA	0.0897
CCGCCCCG	-0.281
ATAAAATA	0.427
AAACGTCC	-0.189
AGGCCACA	-0.28
ATCCCTCG	-0.099
AGGTAATA	0.234
GTGGCCCA	-0.122
